Some of the results follow. These are further read-outs of the screen, such as a control signal, another cell line or another target. No call is given for them. Compounds called inactive in the main read-out are mostly missing here. Potencies come from curve fits of mixed quality, noted in brackets.

Data on nine compounds can be found in PubChem BioAssay (NCATS).
Tags give direction and shape of the fitted curve.

This assay has as its target Catechol O-methyltransferase (Homo sapiens) (UniProt P21964). The assay can be described thus: Confirmatory Screen for Target Class Profiling of Small Molecule Inhibitors of Methyltransferases (AID 1745852).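 Note: inhibitor potency for blocking SAH production.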 As to conditions: MTase-Glo luminescence, SAH detection, recombinant enzyme; measured here: COMT inhibition potency.
UniProt P21964, sequence (P21964 whole entry, looked up): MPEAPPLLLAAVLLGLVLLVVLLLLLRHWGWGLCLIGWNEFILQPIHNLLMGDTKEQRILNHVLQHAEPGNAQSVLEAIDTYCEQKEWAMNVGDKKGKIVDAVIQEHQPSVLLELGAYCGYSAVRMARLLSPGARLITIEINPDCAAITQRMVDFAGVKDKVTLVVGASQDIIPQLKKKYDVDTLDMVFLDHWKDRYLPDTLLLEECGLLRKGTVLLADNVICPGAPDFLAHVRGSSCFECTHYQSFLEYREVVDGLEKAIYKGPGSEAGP
For `CC1=CC(=O)C2C(C)(C)CCCC2(C)C12CCC1(COC(=O)C1)O2` (centres undefined), the IC50 was 1.88 µM [falling, full curve].

Take `COc1cc(/C=C/C(=O)OC[C@H]2O[C@@H](OC3OC=C(C(=O)O)C4C(O)CC(C)(O)C34)[C@H](O)[C@@H](O)[C@@H]2O)cc(OC)c1O` (some centres undefined): the IC50 was 5.69 µM [falling, partial curve].

In the case of `O=C(NCCCc1ccccc1)c1cccc(-c2cc(O)c3ncccc3c2)c1`, the 50% inhibitory concentration (IC50) was 6.85 µM [falling, full curve].

Consider `C/C=C/c1cc(OC)c2c(c1)[C@@H](C)[C@@H](c1ccc(O)c(OC)c1)O2`, for which the IC50 is 13.3 µM [falling, partial curve].

`CC1=CCC(O)C2(C)CCC3C(C)C(=O)OC3C12` (centres undefined): the concentration for half-maximal inhibition (IC50) is 15.2 µM [falling, partial curve].

Take `Oc1cc(CNC(=S)/C=C/c2cc(O)c(O)c(Br)c2)cc(O)c1O`: the IC50 is 27.1 µM [falling, partial curve].

For the compound `O=C(O)CC1(O)C(=O)Nc2ccccc21` (centres undefined), the IC50 is 11.1 µM [falling, partial curve].

Regarding `CC1(CO)CC(O)[C@]2(C(=O)O)CCC34CC3(C=CC3[C@]5(C)C(CC[C@]34C)C(C)(CO)[C@@H](O)[C@H](O)[C@@H]5O)C2C1` (some centres undefined), the half-maximal inhibitory concentration (IC50) is 8.35 µM [falling, partial curve].

With `CC(C)=C1CC2C(CCC2(C)O)C(C)(O)CC1=O` (centres undefined), the half-maximal inhibitory concentration (IC50) is 1.21 µM [falling, full curve].
